In the supplement of paper PMC9334596:
Several values for one entry are separate records, joined by “and”; a condition that tells them apart may be missing. Equal entries are not always repeated. Whole data set: some 5,300 compounds, median “PER2::LUC luminescence relative to vehicle control” near 0.96, cut for the highest 2% near 1.3. The list shows a part of the results.

System: mPer2Luc MEF
Assay: PER2::LUC luminescence relative to vehicle control (fold of vehicle); higher = higher PER2::LUC reporter signal
Conditions: 10 µM
Procedure, shortened: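 The value is PER2::LUC luminescence expressed as fold of vehicle control. Mouse embryonic fibroblasts carrying the mPer2Luc reporter were seeded at ~3000 cells per well in 384-well plates and grown in DMEM with 10% FBS at 37 °C and 5% CO2. Compounds from commercial libraries were added at 10 μM 48 h after seeding, and luminescence was read with the ONE-Glo luciferase assay system 24 h and 30 h after treatment, followed by an alamarBlue viability assay.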

Row | SMILES | PER2::LUC luminescence (time after treatment 24 h) | PER2::LUC luminescence (time after treatment 30 h)
1 | CC(=O)OC[C@H]1O[C@@H]([S-])[C@H](OC(C)=O)[C@@H](OC(C)=O)[C@@H]1OC(C)=O.CCP(CC)CC.[Au+] | 0.98 | 0.973
2 | CCC1(c2ccccc2)C(=O)NCNC1=O | 1.02 | 0.925
3 | COc1cc(-c2ccc(/N=N/c3ccc4c(S(=O)(=O)O)cc(S(=O)(=O)O)c(N)c4c3O)c(OC)c2)ccc1/N=N/c1ccc2c(S(=O)(=O)O)cc(S(=O)(=O)O)c(N)c2c1O | 1.05 | 0.978
4 | CN(CCCNC(=O)c1ccc2nc3c(c(Cl)c2c1)CCCC3)Cc1ccccc1 | 0.848 | 0.958
5 | N#Cc1ccc2c(c1)N(CCCN1CCC(O)CC1)c1ccccc1S2 | 0.876 | 0.828
6 | CCCCc1oc2ccc(NS(C)(=O)=O)cc2c1C(=O)c1ccc(OCCCN(CCCC)CCCC)cc1 | 0.716 and 0.408 | 0.818 and 0.551
7 | Cc1noc(-c2ccc(-c3ccc(CC(=O)O)cc3)cc2)c1NC(=O)OC(C)c1ccccc1Cl (stereo unspecified) | 1.1 | 1.12
8 | CNCCc1cnc(CCC(c2ccccc2)c2ccccc2)[nH]1 | 0.778 | 0.595
9 | CCN1CCN(Cc2ccc(NC(=O)Nc3ccc(Oc4cc(NC)ncn4)cc3)cc2C(F)(F)F)CC1 | 0.107 | 0.14
10 | CCCCCCCCNc1cc(=O)[nH]c(=O)[nH]1 | 0.969 | 1.01
11 | NC(Cn1ccc(=O)c(O)c1)C(=O)O (stereo unspecified) | 0.928 | 0.906
12 | Cc1onc(-c2ccccc2)c1C(=O)N1CCN(c2ccc([N+](=O)[O-])cc2Cl)CC1 | 0.896 | 1.04
13 | C=CC(=O)Nc1cccc(Sc2nc(Nc3ccc(N4CCN(C)CC4)cc3)ncc2Cl)c1 | 0.273 | 0.305
14 | CC(C)NCC(O)COc1ccc(CC(N)=O)cc1 (stereo unspecified) | 1.26 | 1.06
15 | Oc1cc2c(cc1O)C(c1ccccc1)CNCC2 (stereo unspecified) | 0.922 | 0.846
16 | Cn1c(=O)c2c(ncn2CC2OCCO2)n(C)c1=O | 1.15 | 1.14
17 | COc1ccc2cc1Oc1ccc(cc1)C[C@@H]1c3cc(c(OC)cc3CCN1C)Oc1c(OC)c(OC)cc3c1[C@H](C2)N(C)CC3 | 0.674 | 0.713
18 | CC(=O)N(CC(O)CO)c1c(I)c(C(=O)NCCO)c(I)c(C(=O)NCC(O)CO)c1I (stereo unspecified) | 0.978 | 0.842
19 | CN1CCN(CC(=O)N2c3ccccc3C(=O)Nc3cccnc32)CC1 | 1.05 and 1.11 | 1.03 and 1.1

Row | SMILES | PER2::LUC luminescence (time after treatment 24 h) | PER2::LUC luminescence (time after treatment 30 h)
20 | Cc1ccc([C@@H]2O[C@H](CO)[C@@H](O)[C@H](O)[C@H]2O)cc1Cc1ccc(-c2ccc(F)cc2)s1 | 0.966 and 1.09 | 1.05 and 1.06
21 | CC(C)[C@@H](C)[C@@H](O)[C@H](O)[C@@H](C)[C@H]1CC[C@H]2[C@@H]3COC(=O)[C@H]4C[C@H](O)[C@H](O)C[C@]4(C)[C@H]3CC[C@]12C | 0.893 | 0.889
22 | CC(C)(C)c1cc(C(C)(C)C)c(NC(=O)c2c[nH]c3ccccc3c2=O)cc1O | 1 and 0.883 | 1.03 and 0.962
23 | O=C1c2c(O)cc(O)cc2O[C@H](c2ccc(O)c(O)c2)[C@H]1O (racemic) | 1.19 and 1.04 | 0.894 and 0.975
24 | CC(C)NC[C@@H](C(=O)N1CCN(c2ncnc3c2[C@H](C)C[C@H]3O)CC1)c1ccc(Cl)cc1 | 0.633 | 0.642
25 | COC(=O)Nc1nc2cc(Sc3ccccc3)ccc2[nH]1 | 0.804 | 0.97
26 | CC(=O)N(CC(O)CO)c1c(I)c(C(=O)NCC(O)CO)c(I)c(C(=O)NCC(O)CO)c1I (stereo unspecified) | 0.697 | 0.785
27 | CCCc1cc(C)[nH]c(=O)c1CNC(=O)c1cc(-c2ccnc(N3CCN(C)CC3)c2)cc2c1cnn2C(C)C | 1.06 | 1.06
28 | CCc1cnc(N2CCC(c3nc(COc4ccc(-n5cnnn5)cc4)cs3)CC2)nc1 | 0.866 | 0.889
29 | NC[C@H](O)c1ccc(O)c(O)c1 | 1.07 | 0.948 and 1.09
30 | CCN(CC)CCNC(=O)c1ccc(N)cc1 | 1.11 | 1.27
31 | CCCCCCOc1ccccc1C(N)=O | 1.33 | 1.53
32 | c1ccc2c(c1)CC(N1CCN(c3cccc4c3OCCO4)CC1)C2 | 1.06 | 1.11
33 | O=C(Oc1cc(O)cc2c1C[C@@H](OC(=O)c1cc(O)c(O)c(O)c1)[C@@H](c1cc(O)c(O)c(O)c1)O2)c1cc(O)c(O)c(O)c1 | 1.12 | 0.856
34 | CCOC(=O)[C@@H](C)Oc1cccc2c(=O)n(CC(=O)Nc3ccc4c(c3)OCCO4)ccc12 | 1.04 | 0.843
35 | O=C(O)C1=C(CSc2nnnn2CS(=O)(=O)O)CS[C@@H]2[C@H](NC(=O)[C@H](O)c3ccccc3)C(=O)N12 | 0.992 | 0.886
36 | CC(C)CC(NC(=O)[C@H](C)N)C(=O)O (mixture of isomers) | 0.961 | 0.865
37 | Cc1c(-c2ccc(O)cc2)n(Cc2ccc(OCCN3CCCCCC3)cc2)c2ccc(O)cc12 | 0.555 and 0.523 | 0.631 and 0.56
38 | CCc1cc2c(cc1CC)CC(NC[C@H](O)c1ccc(O)c3[nH]c(=O)ccc13)C2 | 0.86 and 0.757 | 0.841 and 0.714
